Results from the RNAGym collection of RNA variant scans (doi:10.1073/pnas.2313332121).
Variants at the floor of the assay are shown more often than the library holds them.

B1: TPR 5TU (parent)
chain: GGAUCUUCUCGAUCUAACAAAAAAGACAAAUCUGCCACAAAGCUUGAGAGCAUCUUCGGAUGCAGAGGCGGCAGCCUUCGGUGGCGCGAUAGCGCCAACGUUCUCAACUAUGACACGCAAAACGCGUGCUCCGUUGAAUGGAGUUUAUCAUG

Variants of: B1
Assay: polymerase ribozyme fitness, log enrichment relative to wild type (log ratio); higher = more active; in vitro selection for triplet polymerase activity
Summary of the method: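 After PCR construction and transcription, each subunit's mutant library from a heterodimeric triplet polymerase ribozyme was annealed with a biotinylated primer, the partner subunit and triplets. Incubation was frozen, at −7 °C, and extended constructs were gel-excised, bound to streptavidin beads and amplified by RT-PCR, in one selection round done in triplicate. Fitness is the logarithm of a genotype's enrichment divided by that of the wild type, from inverse-variance-weighted replicate averages of Illumina-sequenced inputs and outputs. The base of the logarithm is 2, and genotypes needed ≥10 input reads and ≥1 read per output.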

Variant	polymerase ribozyme fitness (log ratio)
GGAUCUUCUCGAUCUAACAAAAAAGACAAAUCUGCCACAAAGCUUGAGAGCAUCUUCGGAUGCAGAGGCGGCAGCCUUCGGUGACGCGAUAGCGCCAACGUUCUCAACUAUGACACGCAAAACUCGUGCUCCGUUGAAUGGAGUUUAUCAUG	-0.556
GGAUCUUCUCGAUCUAACAAAAAAGACAAAUCUGCCACAAAGCUUGAGAGCAUCUUCGGAUGCAGAGGCGGCAGCCUUCGGUGACGCGAUAGCGCCAACGUUCUCAACUAUGAGACGCAAAACACGUGCUCCGCUGAAUGGAGUUUAUCAUG	-3.53
GGAUCUUCUCGAUCUAACAAAAAAGACAAAUCUGCCACAAAGCUUGAGAGCAUCUUCGGAUGCAGAGGCGGCAGCCUUCGGUUGCGCGAUAGCGCCAACUUUAUCAACUAUGACACGCAAAACGCGUGCUUCGUUGAAUGGAGUUUAUCAUG	≤ -4.2
GGAUCUUCUCGAUCUAACAAAAAAGACAAAUCUGCCACAAAGCUUGAGAGCAUCUUCGGAUGCAGAGGCGGCAGCCUUCGGUGACGCGAUAGCGCCAACGUUCUCAACUAUGAGACGCAAAACGCGUGCUCCCUUGAAUGGAGUUUAUCAUG	≤ -4.2
GGAUCUUCUCGAUCUAACAAAAAAGACAAAUCUGCCACAAAGCUUGAGAGCAUCUUCGGAUGCAGAGGCGGCAGCCUUCGGUGUCGCGAUAGCGCCAACGUUCUCUACUAUGACACGCAAUACGCGUGCUCCGUUGAAUGGAGUUUAUGAUA	≤ -4.2
GGAUCUUCUCGAUCUAACAAAAAAGACAAAUCUGCCACAAAGCUUGAGAGCAUCUUCGGAUGCAGAGGCGGCAGCCUUCGGUGACGCGAUAGCGCCAACGUUCUCAACUAUGACACGCAAAACGCGUGCUCCGUUGAAUGGAGUUUAUAAUG	≤ -4.2
GGAUCUUCUCGAUCUAACAAAAAAGACAAAUCUGCCACAAAGCUUGAGAGCAUCUUCGGAUGCAGAGGCGGCAGCCUUCGGUGUCGCGAUAGCGCCAACGUUCUCAACUCUGACACGCAAAACGCAUGCUCCGUUGAAUGAAGUUUAUCAUG	≤ -4.2
GGAUCUUCUCGAUCUAACAAAAAAGACAAAUCUGCCACAAAGCUUGAGAGCAUCUUCGGAUGCAGAGGCGGCAGCCUUCGGUGACGUGUUAGCGCCAACGUUCUCAACUAUGACACGCAAAACGCGUACUCCGUUGAAUGGAGUUUAUCAUG	≤ -4.2
GGAUCUUCUCGAUCUAACAAAAAAGACAAAUCUGCCACAAAGCUUGAGAGCAUCUUCGGAUGCAGAGGCGGCAGCCUUCGGUGACGCGAGAGCGCCAACGUUCUCAACUAUGACACGCAAAACGCGUGCUCCGUUGAAUGGAGUUUAUCAUG	≤ -4.2
GGAUCUUCUCGAUCUAACAAAAAAGACAAAUCUGCCACAAAGCUUGAGAGCAUCUUCGGAUGCAGAGGCGGCAGCCUUCGGUUGCGCGAUAGCGCCAACGUUCUCAACUAUUACACGCAAAACGCGUGCUCCGUUGAAUGGAGUUUAUCAUG	-4
GGAUCUUCUCGAUCUAACAAAAAAGACAAAUCUGCCACAAAGCUUGAGAGCAUCUUCGGAUGCAGAGGCGGCAGCCUUCGGUGUCGCGAUCGCGCCAACGUUCUCAACUAUGACAAGCAAAACGCGUGCUCCGUUGAAUGGAGUUUAUCAUG	≤ -4.2
GGAUCUUCUCGAUCUAACAAAAAAGACAAAUCUGCCACAAAGCUUGAGAGCAUCUUCGGAUGCAGAGGCGGCAGCCUUCGGUGACGUGAUAGCGCCAACGUUCUCCACUAUGACACGCAAAACGCGUGCUCCGUUGAAUGAAGGUUAUCAUG	≤ -4.2
GGAUCUUCUCGAUCUAACAAAAAAGACAAAUCUGCCACAAAGCUUGAGAGCAUCUUCGGAUGCAGAGGCGGCAGCCUUCGGUGACGCGAUAGCGCCAACGUUCUCAACUAUGACACGCAAAAGGCGUGCUCCGUUGAAUGGAGUUUAUCAUG	-0.679
GGAUCUUCUCGAUCUAACAAAAAAGACAAAUCUGCCACAAAGCUUGAGAGCAUCUUCGGAUGCAGAGGCGGCAGCCUUCGGUGUCGCGAUAGCGCCAACGUUCUCAACUAUGACACGCAAAACGCGUGCUCCGUUGCAUGAAGUUUAUCAUG	≤ -4.2
GGAUCUUCUCGAUCUAACAAAAAAGACAAAUCUGCCACAAAGCUUGAGAGCAUCUUCGGAUGCAGAGGCGGCAGCCUUCGGUGUCGGGAUAGCGCCAACGUUCUCCACUAUGACACGCAAAACGCGUGCUCCGUUGAAUUGAGUUUAUCAUG	≤ -4.2
GGAUCUUCUCGAUCUAACAAAAAAGACAAAUCUGCCACAAAGCUUGAGAGCAUCUUCGGAUGCAGAGGCGGCAGCCUUCGGUGACGCGAUAGCGCCAACUUUCUCAACUAUGACACGCAAAACGGGUGCUCCGUUGAAUGGAGUUUAUCAUG	≤ -4.2
GGAUCUUCUCGAUCUAACAAAAAAGACAAAUCUGCCACAAAGCUUGAGAGCAUCUUCGGAUGCAGAGGCGGCAGCCUUCGGUGACGCGAUAGCGCCAGCGUUCUAAACUAUGACACGCAAAACGCGUGCUCCGUUGAAUGGAGUUUAUCAUG	-1.05
GGAUCUUCUCGAUCUAACAAAAAAGACAAAUCUGCCACAAAGCUUGAGAGCAUCUUCGGAUGCAGAGGCGGCAGCCUUCGGUGUCGCGUUAGCGCUAAGGUUCUCGACUAUGACACGCAAUACGCGUGCUCCGUUGCAUGGAGUUUAUCAUG	≤ -4.2
GGAUCUUCUCGAUCUAACAAAAAAGACAAAUCUGCCACAAAGCUUGAGAGCAUCUUCGGAUGCAGAGGCGGCAGCCUUCGGUGCCGCGAUAGCGCCAACGUUCUCAACUAUGACACGCAAAACGCAUGCUACGUUGAAUGGAGUGUAUCAUG	≤ -4.2
